In article PMC6607443, “Systematic identification of recognition motifs for the hub protein LC8” (Life Science Alliance, 2019) one finds binding data, which are given here for 6 molecules.

By UniProt entry, the sequences of proteins in these tests, tags left out.
UniProt P63167: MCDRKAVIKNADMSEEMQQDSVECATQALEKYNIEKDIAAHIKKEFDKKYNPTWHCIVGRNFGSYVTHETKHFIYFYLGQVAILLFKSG

These are yes or no findings as the source states them, for the method shown.

This assay addresses dynein light chain LC8 (UniProt P63167). The experiment in a line: ITC; peptide (500 μM) injected into 25 μM LC8 in the cell; 25°C; 50 mM sodium phosphate, 50 mM NaCl, 1 mM sodium azide, 5 mM β-mercaptoethanol, pH 7.5; single-site model; averages of two to three experiments; both purified.
Regarding SMATPSSSTQTSGT [MUC5B-3 peptide], the binding entry is “no binding (tested: 500 μM peptide injected into 25 μM LC8)”.
As to ESGDGNTGTQTNGL [POU2F1 peptide], the binding entry is “no binding (tested: 500 μM peptide injected into 25 μM LC8)”.
As for TLVSTASGTQTVFP [SH3RF2 peptide], the binding entry was “no binding (tested: 500 μM peptide injected into 25 μM LC8)”.
Consider RGDGSDVSSQTPQT [ANKIB1 peptide], for which the binding entry was “no binding (tested: 500 μM peptide injected into 25 μM LC8)”.
On to DDPMYSSQTQTYGD [KCNQ2 peptide], for which the binding entry was “no binding (tested: 500 μM peptide injected into 25 μM LC8)”.
With KPFMLDEEGDTQTEET [EIF2S2 peptide], the binding result was “no binding (tested: 500 μM peptide injected into 25 μM LC8)”.
